# From paper PMC4336329 (PLoS ONE, 2015)
# Among all 310,000 compounds or so, about 2,200 (0.71%) showed an effect of 50% or more. Effects have a minus sign here. This is one part of the list.
# Target: human ether-à-go-go-related gene (hERG) potassium channel (human, UniProt Q12809)
# Assay: primary screen, population patch clamp on CHO cells stably expressing hERG
# human ether-à-go-go-related gene (hERG) potassium channel, sequence (Q12809 whole entry, looked up): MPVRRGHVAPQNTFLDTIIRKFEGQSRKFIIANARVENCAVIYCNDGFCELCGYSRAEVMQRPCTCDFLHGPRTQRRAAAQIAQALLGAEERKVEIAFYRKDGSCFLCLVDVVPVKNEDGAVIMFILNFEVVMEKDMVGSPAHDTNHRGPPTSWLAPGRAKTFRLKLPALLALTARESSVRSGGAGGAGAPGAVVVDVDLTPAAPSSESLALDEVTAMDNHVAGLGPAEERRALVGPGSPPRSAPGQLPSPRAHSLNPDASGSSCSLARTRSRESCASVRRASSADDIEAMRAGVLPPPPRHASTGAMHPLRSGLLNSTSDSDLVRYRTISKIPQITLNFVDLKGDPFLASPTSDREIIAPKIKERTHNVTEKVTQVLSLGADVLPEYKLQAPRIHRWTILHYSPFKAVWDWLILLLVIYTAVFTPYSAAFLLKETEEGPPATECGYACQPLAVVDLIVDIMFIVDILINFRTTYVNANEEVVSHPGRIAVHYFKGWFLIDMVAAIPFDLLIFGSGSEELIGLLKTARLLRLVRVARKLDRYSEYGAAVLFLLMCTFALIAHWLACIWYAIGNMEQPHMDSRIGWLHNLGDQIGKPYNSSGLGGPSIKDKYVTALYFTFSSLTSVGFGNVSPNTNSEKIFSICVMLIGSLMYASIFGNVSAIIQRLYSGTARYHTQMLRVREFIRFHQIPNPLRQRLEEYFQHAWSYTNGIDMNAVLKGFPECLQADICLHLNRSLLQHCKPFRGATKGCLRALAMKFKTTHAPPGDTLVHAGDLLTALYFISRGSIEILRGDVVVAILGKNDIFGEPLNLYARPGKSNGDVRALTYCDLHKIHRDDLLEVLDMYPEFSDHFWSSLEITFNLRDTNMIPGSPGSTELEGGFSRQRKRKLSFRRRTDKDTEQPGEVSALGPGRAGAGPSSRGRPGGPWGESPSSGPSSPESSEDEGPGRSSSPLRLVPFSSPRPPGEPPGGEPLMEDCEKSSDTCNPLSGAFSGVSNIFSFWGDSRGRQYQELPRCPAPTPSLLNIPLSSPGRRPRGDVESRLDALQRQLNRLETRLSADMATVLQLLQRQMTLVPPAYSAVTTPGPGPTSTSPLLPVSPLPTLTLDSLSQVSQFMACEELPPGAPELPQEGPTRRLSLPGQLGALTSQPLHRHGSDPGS
row,SMILES,"hERG current change (%, negative = inhibition) at 1uM"
1,COc1ccc(OC)c(/C=N/NC(=O)c2ccncc2)c1,13.6%
2,NC(=O)c1ccc[n+]([C@H]2O[C@@H](COP(=O)([O-])OP(=O)(O)OC[C@H]3O[C@@H](n4cnc5c(N)ncnc54)[C@H](O)[C@@H]3O)[C@H](O)[C@@H]2O)c1,15.6%
3,COc1ccc(C(=O)NC2(C(F)(F)F)NC(=O)N(CCCc3ccccc3)C2=O)c(OC)c1OC (stereo not shown),1.27%
4,COc1ccc(-c2cc(C(F)(F)F)n3nc(C(=O)O)nc3n2)cc1,17.1%
5,CC(C)[C@@H]1NC(=O)c2cc([N+](=O)[O-])cc(I)c2NCCC[C@@H](C(=O)NC(CC(=O)O)C(N)=O)NC(=O)[C@H](CO)NC1=O (stereo partly shown),-17.3%
6,O=C(NN=C1CCCC1)c1cc(O)cc(O)c1,13.4%
7,Cc1nc(SCC(=O)Nc2ccc(OCc3ccccc3)cc2)n[nH]1,12%
8,CCN(CC)S(=O)(=O)c1cc(NC(=O)c2cccc(N3C(=O)CCC3=O)c2)ccc1Cl,11.2%
9,CCN(C(=O)c1cc(S(=O)(=O)N2CCCC2)ccc1C)C1CCS(=O)(=O)C1 (stereo not shown),2.71%
10,Cc1nccn1Cc1ccccc1,26.4%
11,CC(C)OC(=O)NCCOC(=O)Nc1ccccc1Cl,12%
12,CN(c1ccccc1)S(=O)(=O)c1ccc(C(=O)NNC(=O)c2ccccc2)cc1,5.77%
13,O=C(NC(=O)c1ccccc1)Nc1ccccc1,15.9%
14,COC(=O)c1c(C(=O)OC)c2oc3ccccc3n2c1Cl,3.38%
15,CC(=O)OCn1nnc2ccccc2c1=O,11.3%
16,O=C1NC(=O)/C(=C/c2ccccc2Cl)N1,8.63%
17,O=C1NC(=O)C(c2ccccc2)(c2ccc(O)cc2)N1 (stereo not shown),10.8%
18,O=C(NCc1cccc(Br)c1)C1CC(c2cc(C(F)(F)F)cc(C(F)(F)F)c2)=NO1 (stereo not shown),5.59%
19,Cn1c(C(F)(F)F)nc2c(=O)oc3ccccc3c21,-7.06%
20,Cc1ccc(NC(=O)CSc2nc(N)c(-c3ccccc3)c(=O)[nH]2)cc1Cl,16.3%
21,Cc1c(C(=O)N2CCCC(C(F)(F)F)C2)oc2ccccc12 (stereo not shown),4.51%
22,CN(C)NC(=O)c1csnc1-c1c(Cl)cccc1Cl,11.9%

row,SMILES,"hERG current change (%, negative = inhibition) at 1uM"
1,CN1CCCC(C(=O)c2ccc(-c3ccccc3)cc2)C1 (stereo not shown),5.8%
2,Cc1ccc(SC/C(O)=C(\C#N)c2nc3ccccc3n2C)cc1,5.99%
3,Cc1cc(C)cc(N2CCN(C(=O)N3CCOCC3)CC2)c1,12.5%
4,Cc1ccc(-c2cc(C(=O)N3CCCC(C(F)(F)F)C3)c3ccccc3n2)o1 (stereo not shown),-2.51%
5,Cc1cccc(NC(=O)c2ccc(S(=O)(=O)N3CCOCC3)cc2)c1C,13.1%
6,CCOc1ccc(NC(=O)CN2C(=O)NC3(CCCC3)C2=O)cc1S(=O)(=O)N1CCCCC1,14.5%
7,COc1cc(/C(=C/c2ccccc2)c2ccccc2)c2c(c1)oc1ccccc12,15.8%
8,CC(=O)Nc1cccc(Oc2nc(-c3ccccn3)nc3ccccc23)c1,10.4%
9,OCCN1CCN(Cc2nc(-c3cccc(Cl)c3)no2)CC1,6.88%
10,Cc1ccc(-c2n[nH]c(=S)n2Cc2ccccc2)cc1,8.36%
11,COn1c(C)c(C(C)=O)c2c3nonc3ccc21,7.26%
12,Cl.O=C(O)CN1CCCCC1,1.57%
13,CC(=N[C@@H]1CCCC[C@H]1N=C(C)c1ccccc1O)c1ccccc1O,4.66%
14,CC(=O)Nc1cc(C(C)C)c(O)c(C(C)C)c1,-1.01%
15,O=C1CC(c2ccccc2)NN1 (stereo not shown),19.4%
16,COc1ccccc1NC(=O)C(=O)NCC(c1ccco1)N1CCc2ccccc2C1 (stereo not shown),10.6%
17,COC(=O)c1ccc(NC(=O)c2sc3nc(-c4ccccc4)cn3c2C)cc1,12.3%
18,Cc1ccc(Sc2ncccc2C(N)=O)cc1,10.5%
19,COc1ccc(CN2CCN(C(=O)c3cc(-c4cccnc4)nc4ccc(Cl)cc34)CC2)c(OC)c1OC.Cl,9.63%
20,CN(C(=O)Nc1cccc(C(F)(F)F)c1)C1CCCCC1,13.8%
21,O=C(NCC1CCCO1)C1CCN(C2CCN(C(=O)Cc3ccsc3)CC2)CC1 (stereo not shown),7.14%
22,CCOC(=O)C1CCCN(S(=O)(=O)c2cc(OCC(N)=O)c(C)cc2Cl)C1 (stereo not shown),11.7%

row,SMILES,"hERG current change (%, negative = inhibition) at 1uM"
1,COc1ccc2c(=O)cc(C(=O)O)oc2c1,-3.54%
2,COc1ccc(NC(=O)[C@@H](NC(N)=O)C(C)C)cc1Cl,8.42%
3,O=C(CCc1nc(-c2cccs2)no1)Nc1cnc2ccccc2c1,18.7%
4,COc1ccc(C2=C/C(=C\c3ccccc3OC(C)=O)C(=O)O2)cc1,18.4%
5,Cc1c(C(=O)N2CC(C)OC(C)C2)sc2nc(-c3ccc(F)cc3)cn12 (stereo not shown),-2.78%
6,COc1ccc2oc(C(=O)N3CCN(S(=O)(=O)c4cccc([N+](=O)[O-])c4)CC3)c(C)c2c1,13.5%
7,Cc1ccc(C)c(OCCC(=O)NCCc2ccc(F)cc2)c1,9.65%
8,CCOc1ccc(CC(=O)NNC(=S)NC)cc1,10.1%
9,Cc1c(NC(=O)/C(C#N)=C/c2c(Oc3ccccc3)nc3ccccn3c2=O)c(=O)n(-c2ccccc2)n1C,7.31%
10,CC(NC(=O)CCNS(=O)(=O)c1ccc2c(c1)oc(=O)n2C)c1ccccc1 (stereo not shown),14.1%
11,O=C(c1cc(COc2ccc(F)c(F)c2)on1)N1CCOCC1,13.4%
12,O=C(Nc1nc(-c2cc3ccccc3o2)cs1)c1ccc(S(=O)(=O)N2CCCC2)cc1,23.1%
13,CCC(C)N(C(=O)Cn1nnc2ccccc21)C(C(=O)Nc1ccc(F)cc1)c1cccc(OC)c1 (stereo not shown),3.02%
14,COc1ccccc1OCC(=O)N/N=C1/C=C(C)CC1,-0.906%
15,O=C(NCC(=O)N1CCC(N2CCCCC2)CC1)C1CCCCC1,10.4%
16,Cc1c(CC(=O)O)c(=O)oc2cc3occ(-c4ccc(F)cc4)c3cc12,18%
17,COc1ccc(-c2nnc(N3CCOCC3)c3ccccc23)cc1,11.8%
18,O=C(Nc1ccc2ccccc2n1)c1ccccc1Br,19.4%
19,CCc1cc2cc(OC)ccc2nc1SCC(=O)Nc1cc(OC)c(OC)cc1C(=O)O,4.02%
20,CSCC[C@H](NC(=O)OC(C)(C)C)c1nnc(SCc2ccc(F)cc2)o1,-0.565%
21,CCOc1ncccc1C(=O)Nc1ccc(S(=O)(=O)Nc2nccs2)cc1,10.5%
22,Cc1ccc(S(=O)(=O)N2CCN(C(=O)CCN3C(=O)c4ccccc4C3=O)CC2)cc1C,-2.35%

row,SMILES,"hERG current change (%, negative = inhibition) at 1uM"
1,COc1ccc([C@H]2CC(=O)C=C(c3ccccc3)C2)cc1,12.6%
2,Cc1cc(C(F)(F)F)c2c(C)nn(-c3ccccc3)c2n1,11.5%
3,CCCc1cc(=O)oc2cc(C)cc(OC(C)C(=O)NCc3ccccn3)c12 (stereo not shown),2.71%
4,COC(=O)c1cccc(N(C(=O)c2ccco2)C(C(=O)NC2CCCC2)c2ccco2)c1 (stereo not shown),-5.49%
5,Cc1ccc(C(C)(O)CS(=O)(=O)Cc2ccccc2)cc1 (stereo not shown),12.3%
6,Cc1ccc(CSCC(=O)Nc2cc(S(=O)(=O)N3CCOCC3)ccc2OC(C)C)cc1,-4.76%
7,COCc1cc(C)[nH]c(=O)c1C(=O)NC12CC3CC(CC(C3)C1)C2,15.4%
8,COc1cc(NC(=O)c2cccnc2SC)cc(OC)c1OC,14.5%
9,O=C(Nc1ccccc1N1CCCC1)c1ccc(Br)o1,6.24%
10,CCCCNC(=O)CC1Nc2ccccc2NC1=O (stereo not shown),2.1%
11,CC/C(C)=N/Nc1nc(-c2cc3cccc(OC)c3oc2=O)cs1,5.28%
12,CC(C)CCC(C(=O)O)C(C)CC(=O)Nc1ccn(-c2ccccc2)n1 (stereo not shown),12%
13,Cc1cc(Oc2ccccc2)nc(NCc2ccccc2)n1,6.46%
14,CCCCOc1cccc(C(=O)N(Cc2ccccc2)C2CCS(=O)(=O)C2)c1 (stereo not shown),13%
15,COc1ccc(NC(=O)c2cccc(OC(=S)N3CCOCC3)c2)cc1,4.26%
16,O=C(CCCCC(=O)NCCCc1ccccc1)NCCCc1ccccc1,14%
17,COc1ccccc1-c1ocnc1C(=O)N1CCN(C(=O)C(c2ccccc2)c2ccccc2)CC1,-15.8%
18,C/C(=N/NC(=O)c1cc(C)[nH]n1)c1ccco1,12.4%
19,O=C(CNC(=O)C1CCCCC1)OCc1cc(=O)oc2ccc3ccccc3c12,5.88%
20,CCc1c(O)nc(SCC(=O)Nc2ccc(OC)cc2)n(C2CCCCC2)c1=O,7.24%
21,COc1cccc(OCc2cc(C(=O)N(C)C3CCOCC3)no2)c1,1.6%
22,Cc1ccc(OCCn2cc(C=O)c3ccccc32)cc1,17.4%
